Hit rate of the full screen: of about 150,000 compounds, about 540 (0.36%) showed an effect of 50% or more. The list shows a part of the results.

The values below come from ChEMBL document CHEMBL4888484, “Replenishing the malaria drug discovery pipeline: Screening and hit evaluation of the MMV Hit Generation Library 1 (HGL1) against asexual blood stage Plasmodium falciparum ,using a nano luciferase reporter read-out” (2022).

In this experiment the test system is Plasmodium falciparum. In words: Primary screen in NF54 nanoGlo assay, in single point, at 2uM, 72h; a lower Z score goes with more inhibition. Type of experiment: functional, Erythrocyte. The note with it: timepoint 72 hour.
In the case of `OCC[C@H]1CN(Cc2cc3ccccc3[nH]2)CCN1Cc1ccc(F)c(F)c1`, the “% Inhibition” value is -8% and the Z score is listed as 1.01.

For the molecule `Cc1c(NS(=O)(=O)C[C@H]2CCCCO2)cnc2[nH]ccc12`, the “% Inhibition” value is reported as -14% and the Z score turned out to be 1.52.

Turning to `CCS(=O)(=O)N1CCC[C@H](COCc2ccccc2)C1`, the “% Inhibition” value was -5% and the Z score worked out at 0.74.

With `CN(C)[C@H]1CCN(C(=O)c2cn(CCCc3ccccc3)nn2)C1`, the “% Inhibition” value is on record as -12% and the Z score came to 1.1.

For `CN1C[C@@H]2CC[C@H]1CN(S(=O)(=O)c1ccc3c(c1)NC(=O)CO3)C2`, the “% Inhibition” value was 2% and the Z score is -0.42.

Turning to `O=C(c1ccc(Cl)cc1)N1C[C@]2(CO)CCCC[C@]2(CO)C1`, the “% Inhibition” value is on record as -11% and the Z score came to 1.22.

Consider `Cc1oc2ncnc(Oc3ccccc3Cl)c2c1C`, for which the “% Inhibition” value is 3% and the Z score is reported as -0.41.

As to `CC(C(=O)N(C)C1CCCCC1)N1CCCC(Cc2nnn[nH]2)C1` (stereo unspecified), the “% Inhibition” value was -10% and the Z score was found to be 1.9.

Turning to `O=C(CN1CCC(O)CC1)Nc1ccc(Cl)cn1`, the “% Inhibition” value is reported as -7% and the Z score is recorded as 1.43.

For the molecule `CN1CCC[C@H](NC(=O)CCn2cccn2)C1=O`, the “% Inhibition” value was -3% and the Z score was found to be 0.43.

For the molecule `CN(C)Cc1nnc([C@H]2C[C@@H](NC(=O)c3cnc4c(c3)CCC4)C2)n1C`, the “% Inhibition” value is listed as -18% and the Z score worked out at 1.83.

As to `CC(C)n1cnc2ccc(CNc3ccc4nnnn4n3)cc21`, the “% Inhibition” value was found to be 1% and the Z score is given as -0.15.

`C[C@@H](c1ccccc1)n1cnc2c1c(=O)n(CC1CC1)c(=O)n2-c1ccccc1`: the “% Inhibition” value is on record as 1% and the Z score is -0.14.

For `CC[C@H](C)NS(=O)(=O)c1cc(-c2nc(C)c(C(=O)N3CCOCC3)s2)n(C)c1C`, the “% Inhibition” value stood at 2% and the Z score was -0.21.

Consider `O=C(NCCN1CCCC1=O)c1ccc(-c2cnc3nncn3c2)cc1`, for which the “% Inhibition” value worked out at 1% and the Z score is given as -0.25.

As to `Cc1cnc(CNCCCOC2CCCCC2)o1`, the “% Inhibition” value is -7% and the Z score is listed as 0.96.

With `Cc1cc(C)cc(CCNC(=O)CN(C)S(C)(=O)=O)c1`, the “% Inhibition” value is reported as -4% and the Z score was determined as 0.7.

Take `CN1C(=O)[C@@H]2CC[C@H]1CN(C(=O)NCc1ccc(F)cc1)C2`: the “% Inhibition” value is given as -11% and the Z score worked out at 1.6.

With `CCOC(=O)c1nn(-c2ccc(C(=O)NCCC(c3ccccc3)c3ccccc3)cc2)c(C)c1Cl`, the “% Inhibition” value is reported as -8% and the Z score is reported as 1.14.

Consider `N#CC1N(C(=O)[C@@H]2C[C@H]2c2ccc(F)cc2)CCCC12CCCCO2` (stereo partly specified), for which the “% Inhibition” value was found to be 4% and the Z score was -0.41.

As for `COC(C)(C)CCN1CCOC[C@@]1(CO)CNC(=O)OC(C)(C)C`, the “% Inhibition” value was 23% and the Z score is -2.95.

As for `Cc1cc(C)n(CCC(=O)N2CCC(n3c(=O)[nH]c4ccc(F)cc4c3=O)CC2)n1`, the “% Inhibition” value was -6% and the Z score came to 1.07.

Consider `Cc1cnc(N2CCN([C@@H](C)C(=O)Nc3nccs3)CC2)s1`, for which the “% Inhibition” value is reported as -6% and the Z score is 1.22.
